B1: LINE1-full (parent)
chain: UACGUAGGUGGUUUUCCCCUGAUAGUGCUAAGGGGGCCUGGAAGUUUGGACUGGGCAGAGCUCAACACAGCGUGGCAAAGUGGCUGUGGCUAGACUGCCUCUCUGGAUUCCUCGUCACUCAGCAGGGCAUCUCUGAGAGAAAUGCC

Read counts are not given, so values of variants with three or more changes are uncertain.

In the data set the parent is B1. The experiment in a line: self-cleavage, relative activity (ratio to wild type); higher = more cleavage; in vitro, sequencing; the parent is a self-cleaving ribozyme.
Turning to A2U U20C U104C U108C, the self-cleavage turned out to be 0.38.
On to C3U A59U U132C A136U, for which the self-cleavage amounted to 0.9.
For C3U A69U U115C, the self-cleavage amounted to 0.06.
For C3U A77G U96A, the self-cleavage is 0.15.
In the case of G4A A77U A78G, the self-cleavage came to 0.84.
Turning to C3A U15G G36A A57G C76U G86U, the self-cleavage stood at 0.08.
As for A2G U52C U143C, the self-cleavage is 1.19.
As for G4A U62C U73C, the figure is 0.
As for C3U A31G A59G, the figure is 0.15; as for A2U U29G A121G, 2.38; as for A2U U9A U20C A69G, 0.79.
As for C3U A22G A78G C101G, the figure is 1; as for G4A A31U C37G A64U, 0.41; as for C3U U14C A24G A140G, 0.64.
Consider A2G U39C A43G U91A U130C, for which the self-cleavage is 0.8.
For G4A G55C A121G U130C A141G the value was 0.29; for C3G U12G U96C, 0.29; for C3A A65G A129U, 0.
As for G4A A24G U46C U73C U85C C99A, the figure is 0; as for A2G U87A G88A, 0.18; as for C3A A59U U134A A141G, 0.55.
Turning to G4A U112A U130C A140G, the self-cleavage was 1.62.
As for G4A U102A C103A, the figure is 1.78.
For A2U U15C G34A U52A U85C, the self-cleavage is 0.28.
For A2G U47A U115A the value was 0.68; for A2U G93A U134A, 0.05.
As for A2G U73G A107U, the self-cleavage stood at 0.92.
As for A2U U15C A140G, the figure is 0.9; as for C3U A22G U62C A107G, 0; as for A2G U45A A69G U119C A136G G139A, 1.15.
With A2U A24G C71U, the self-cleavage is 0.61.
Consider G4A C68U U73C, for which the self-cleavage was 0.26.
For A2U U62C C133U the value was 0.13.
In the case of A2G U45A A64G A65G, the self-cleavage was 0.
For C3U A67U U102A, the self-cleavage is 0.16.
With C3U G55C G106A, the self-cleavage came to 0.12.
On to C3A U52C A59U, for which the self-cleavage turned out to be 0.38.
For C3U A30U U39A the value was 0.73; for C3U U14C A142G, 0.92; for C3U U26C G89A G126U, 0.09.
For the variant G4A A43G C103U, the self-cleavage worked out at 0.83.
For A2G U108A A140G the value was 0.78; for C3U U100C A138G, 1.76; for G4A G54A A64G U104A A141G, 0.15.
For C3A G97A A107G A129G the value was 0.1.
As for C3G G11A A30G, the figure is 0.53; as for C3U A30G G32A G33A A136G, 0.94.
On to G4A A30U U96C, for which the self-cleavage worked out at 0.12.
For C3A A6C U12C U39A the value was 0.89.
Turning to A2G U81A A140G, the self-cleavage amounted to 1.41.
Take G4A G82A A117G A124G G126C U134C: the self-cleavage is 1.84.
For A2G U81A A129G A141U, the self-cleavage was 1.18.
Consider G4A A78G A138G A142C, for which the self-cleavage was 0.71.
As for A2G U46C G54A U96A, the figure is 0.08; as for G4A A30U U47A U109C, 0.
For C3A C71G U96C, the self-cleavage worked out at 0.21.
On to C3U U26C G33A, for which the self-cleavage was determined as 0.69.
For A2G U46C G60A A64C the value was 0.27; for A2U U13G U87C, 0.2.
For C3A U29C A94G the value was 0.16; for C3U U15C A59G A69G G75U, 0.
For G4A U52G A69G U108C U143C the value was 0.
For A2G U100C G126A, the self-cleavage came to 0.31.
As for C3U U29C G127A, the figure is 0.5.
As for C3U U52C U85C, the self-cleavage is 0.32.
C3U A124G A129G A138G: the self-cleavage is 1.08.
In the case of A2U G93A A121G, the self-cleavage came to 0.05.
As for A2U U20C A24G G27A U39C A129U, the self-cleavage turned out to be 0.57.
As for A2U U9C U112G, the figure is 0.71; as for A2U U13C U15C A121C, 2.17.
Take C3U G41U A142C: the self-cleavage stood at 0.29.
As to C3U U13C U96A U130C, the self-cleavage came out at 0.19.
Consider C3U U62C C68U, for which the self-cleavage worked out at 0.08.
For G4A U23C A24G U134C, the self-cleavage stood at 1.12.
For C3U U13C G21A U109C the value was 0.41.
For C3U A22G U96C, the self-cleavage came out at 0.44.
On to A2U A59G U87C, for which the self-cleavage is 0.
For the variant A2G U47C A50G, the self-cleavage worked out at 0.27.
On to G4A U9A C76U, for which the self-cleavage came out at 1.3.
On to C3U A57G G127A, for which the self-cleavage was found to be 0.74.
For G4A A78U A92G the value was 0; for C3U A43G A107U U112C, 0.54; for C3A U96A U104A, 0.16.
As for G4A G70C U130G, the figure is 0.14; as for A2G U87A A136G, 0.08.
For A2G U47C A94G the value was 0.
For the variant G4A U9C U14C G86U, the self-cleavage turned out to be 0.27.
In the case of C3U U96C U132C, the self-cleavage is 0.21.
For A2G U45C A79G the value was 0.42; for C3U G54U A77G, 1.
As for C3A U26C A65U A78U U91A G114U, the figure is 0.08; as for C3U U26A C66U U96G U115C A138G, 0; as for C3U U45A U52A G53A A92G, 0.
As for C3U A69G U134C, the figure is 0; as for C3U U12G U20A G122U, 1.13; as for C3U U14C C90U A140G, 0.
Consider C3A C51A U115A G127A, for which the self-cleavage came to 0.95.
As for G4A A117G U134C, the figure is 0.77; as for A2U U12C U14C U52A A78G U143G, 0.62; as for A2G U47G U112C, 2.42.
As for G4A U14C A79U, the figure is 0.66.
In the case of A2G U91C U112A, the self-cleavage was found to be 0.74.
For C3U U13A U15C U62C the value was 0.18.
As for C3U U81C U109A, the figure is 0.66; as for G4A U9C A94G, 0.34; as for A2G U52A A64G, 0.4.
As for C3U A79G A107G, the figure is 1.62.
Consider A2G U73C A94G A140G, for which the self-cleavage was found to be 1.02.
For A2G U46A U52A C113U A140G the value was 0.76; for A2G U45C U108C G125U, 1.15.
For the variant A2G U91A A138U, the self-cleavage was found to be 0.77.
For the variant G4A A22U U52C A64G A124G, the self-cleavage is 0.38.
As for C3A U14C U119A U132C, the figure is 0.89.
As for C3U A43G U47C A50U A67G, the figure is 0; as for C3U U39C A42U A94G, 0.24.
Take A2G U47A A78G A129U A142G: the self-cleavage is 0.54.
Turning to C3U U9A U39A U46C U47C U109A A121G, the self-cleavage is 0.92.
Regarding C3U U46C U143A, the self-cleavage turned out to be 0.55.
C3U U39A A79U U104C A124G U134C: the self-cleavage was 1.72.
As for A2U U20A A22G A78U A94G, the figure is 0.97; as for G4A G7U U81C U102A, 0.56.
With A2U G8A C18U U45C U104A A141G U143G, the self-cleavage turned out to be 1.18.
A2U A59U U73A U104A U109A: the self-cleavage was determined as 0.55.
Consider C3A A59U U100A A141G, for which the self-cleavage was determined as 0.28.
As for G4A A42G G49C G72A U81C, the figure is 1.25; as for C3U C38U A107G U109C U115G U132C, 0; as for A2U U46C U52A A64U A141G, 0.29.
As to A2U U9A A64G, the self-cleavage came to 0.34.
For A2G U85C G144A the value was 0.77; for G4A U9A G93U, 0.05; for G4A A59G A117G, 0.
As for C3U A117U A138G, the figure is 1.28; as for C3U U13C U45A A138G, 0.44.
For G4A G60A A94G G135A the value was 0.14; for C3U U52C C111U, 0.19.
Turning to C3A U12C A24G, the self-cleavage amounted to 1.45.
With A2U A121U A140G, the self-cleavage was 0.77.
As for G4A A22G G53A U96A U109C C118U A142G, the self-cleavage amounted to 0.02.
A2U A43G U62C U134A: the self-cleavage stood at 0.
As to G4A A22G G55A U62C, the self-cleavage came out at 0.12.
For G4C A42G U87C, the self-cleavage was 0.
As for A2U U5C U52C U134C, the figure is 0.
A2U U9G U52A: the self-cleavage came out at 1.02.
For A2G U100A A140G the value was 0.18; for G4A U13C U20C A129G, 1.13; for G4A G7A G40A U52C, 0.64.
As for G4A U81C U96C, the figure is 0; as for A2G U47A A141G, 0; as for A2G U104C U112A A141G, 1.18.
As for G4A U12G G44A A69G U73C U87A A124G, the figure is 0.
In the case of A2G U119A U143C, the self-cleavage was 1.31.
On to C3U U5C U119C, for which the self-cleavage amounted to 1.11.
On to G4A A6G U115C A141G, for which the self-cleavage is 2.63.
For A2G U115C A121G the value was 2.63.
As for A2U C51U U104C A142U, the figure is 1.47; as for A2U A77G U96C, 0.18.
For C3A U62C A65G the value was 0.1; for G4A U13A U15C A59G A64U, 0.27; for A2G U62A U130C A140U, 0.26.
As for G4A U23A C84U U130C, the self-cleavage amounted to 0.23.
On to C3U A24U G27A U85A U87A A138G, for which the self-cleavage was 0.09.
For G4A U85C U109C G126A the value was 0.17; for G4A U26A U134C, 1.35; for A2G U45A A77G, 1.61.
For A2G U91C U102A A138G the value was 0.33; for A2G U96C C123G, 0.52.
For C3A G10A U20C A107G the value was 1.5.

For the origin of these results see the RNAGym collection of RNA variant scans (doi:10.7554/elife.90254).
